Among all 310,000 compounds or so, about 2,200 (0.71%) showed an effect of 50% or more. Effects have a minus sign here. The list shows a part of the results.

The values below come from article PMC4336329 (PLoS ONE, 2015).

The target of the experiment is human ether-à-go-go-related gene (hERG) potassium channel (human, UniProt Q12809). Nature of the experiment: primary screen, population patch clamp on CHO cells stably expressing hERG.
Sequence of human ether-à-go-go-related gene (hERG) potassium channel (Q12809 whole entry, looked up): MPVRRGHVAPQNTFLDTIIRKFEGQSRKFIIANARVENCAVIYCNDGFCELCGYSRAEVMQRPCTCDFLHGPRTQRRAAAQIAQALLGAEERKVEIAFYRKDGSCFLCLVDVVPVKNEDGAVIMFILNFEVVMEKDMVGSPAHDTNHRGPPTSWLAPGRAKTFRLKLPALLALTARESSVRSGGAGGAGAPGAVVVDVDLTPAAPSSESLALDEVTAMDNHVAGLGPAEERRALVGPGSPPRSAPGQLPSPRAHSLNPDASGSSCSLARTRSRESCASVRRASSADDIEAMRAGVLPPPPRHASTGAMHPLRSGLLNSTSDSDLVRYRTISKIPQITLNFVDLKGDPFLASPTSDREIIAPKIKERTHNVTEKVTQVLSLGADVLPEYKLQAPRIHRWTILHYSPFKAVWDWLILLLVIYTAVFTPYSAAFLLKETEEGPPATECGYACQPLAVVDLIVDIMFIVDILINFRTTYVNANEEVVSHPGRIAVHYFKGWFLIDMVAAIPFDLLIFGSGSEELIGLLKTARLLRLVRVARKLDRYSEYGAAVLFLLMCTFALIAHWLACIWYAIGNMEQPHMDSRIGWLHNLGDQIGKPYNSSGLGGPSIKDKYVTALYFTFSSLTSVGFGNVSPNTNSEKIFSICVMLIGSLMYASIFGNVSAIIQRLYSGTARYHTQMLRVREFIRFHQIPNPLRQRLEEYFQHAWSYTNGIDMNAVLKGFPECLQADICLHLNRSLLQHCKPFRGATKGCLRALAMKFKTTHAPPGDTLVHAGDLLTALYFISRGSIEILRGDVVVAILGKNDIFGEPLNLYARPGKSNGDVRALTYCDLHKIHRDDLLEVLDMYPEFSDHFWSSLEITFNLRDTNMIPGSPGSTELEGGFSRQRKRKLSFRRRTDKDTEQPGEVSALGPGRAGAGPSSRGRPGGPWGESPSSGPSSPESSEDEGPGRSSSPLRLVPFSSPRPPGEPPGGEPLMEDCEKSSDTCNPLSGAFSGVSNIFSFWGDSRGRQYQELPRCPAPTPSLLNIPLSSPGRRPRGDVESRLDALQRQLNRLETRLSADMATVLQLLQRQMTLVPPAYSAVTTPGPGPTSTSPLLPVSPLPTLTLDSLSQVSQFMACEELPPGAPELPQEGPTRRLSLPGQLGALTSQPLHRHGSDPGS
With `COC(=O)c1[nH]c2c(c1C(=O)OC)CCc1ccccc1-2`, the “hERG current change (%, negative = inhibition) at 1uM” value is listed as 10.1%.

With `Cc1ccc(NC(=O)CCc2ccc(C)o2)c(Br)c1`, the “hERG current change (%, negative = inhibition) at 1uM” value was found to be 9.76%.

In the case of `CCC(C)(C)NC(=O)c1ccc2c(c1)N(CC(=O)N1CCCC1)C(=O)C(C)(C)O2`, the “hERG current change (%, negative = inhibition) at 1uM” value is 13.3%.

As for `CC(C)(C)C(=O)Nc1nnc(-c2ccncc2)o1`, the “hERG current change (%, negative = inhibition) at 1uM” value worked out at 13.4%.

As to `CCN(CC(=O)NCc1cccs1)C(=O)/C=C/c1ccc(Cl)c(Cl)c1`, the “hERG current change (%, negative = inhibition) at 1uM” value is -1.36%.

As for `CCCCN(C(=S)Nc1ccccc1)C1CCS(=O)(=O)C1` (stereo not shown), the “hERG current change (%, negative = inhibition) at 1uM” value is on record as 10.4%.

`COc1ccc(NC2=C(C(C)=O)C(c3ccc(OC)c(OC)c3)C(C(C)=O)C(C)(O)C2)cc1` (stereo not shown): the “hERG current change (%, negative = inhibition) at 1uM” value turned out to be 4.5%.

Regarding `Cc1c(C2Nc3ccccc3NC3=C2C(=O)CC(C)(C)C3)cnn1C` (stereo not shown), the “hERG current change (%, negative = inhibition) at 1uM” value amounted to 11.3%.

As to `C=CC(=O)Oc1ccc(N2Cc3ccccc3C2=O)cc1`, the “hERG current change (%, negative = inhibition) at 1uM” value is listed as 18.5%.

Take `CCn1ccnc1CN1CCCC(CO)(Cc2cccc(OC)c2)C1` (stereo not shown): the “hERG current change (%, negative = inhibition) at 1uM” value was -1.48%.

For `Cc1c(N=NC2=C(O)CC(C)(C)CC2=O)c(=O)n(-c2ccccc2)n1C`, the “hERG current change (%, negative = inhibition) at 1uM” value is reported as 9.85%.

Consider `COc1ccc(C(=O)c2cc([N+](=O)[O-])ccc2N2CCOCC2)cc1`, for which the “hERG current change (%, negative = inhibition) at 1uM” value came out at 5.63%.

In the case of `N#Cc1ccc(NC(=O)Nc2ccc(Oc3ccc(NC(=O)Nc4ccc(C#N)cc4)cc3)cc2)cc1`, the “hERG current change (%, negative = inhibition) at 1uM” value came to 11.8%.

As to `Cc1cccc(OCC(=O)N/N=C/c2cccn2C)c1`, the “hERG current change (%, negative = inhibition) at 1uM” value turned out to be 4.13%.

As for `O=C(c1ccccc1F)N(Cc1cccnc1)Cc1cc2cc3c(cc2[nH]c1=O)OCCO3`, the “hERG current change (%, negative = inhibition) at 1uM” value worked out at 5.77%.

As for `CCCCCC(=O)N1CCN(c2ccc(C(C)=O)cc2F)CC1`, the “hERG current change (%, negative = inhibition) at 1uM” value is on record as -26.4%.

On to `CC(C)Oc1ccc(C(CC(=O)O)NC(=O)c2cccs2)cc1` (stereo not shown), for which the “hERG current change (%, negative = inhibition) at 1uM” value is on record as 5.87%.

With `CN(C)CC1CSCCC1(O)c1ccc(Cl)cc1.Cl` (stereo not shown), the “hERG current change (%, negative = inhibition) at 1uM” value was 8.16%.

For `COc1ccc(NC(=S)c2ccc(N(C)C)cc2)cc1`, the “hERG current change (%, negative = inhibition) at 1uM” value is given as -2.35%.

With `COc1ccc(OC)c(NC(=O)CN(Cc2ccccc2)S(C)(=O)=O)c1`, the “hERG current change (%, negative = inhibition) at 1uM” value is -0.446%.

Turning to `CCOC(=O)c1ccc(NC(=O)c2nc[nH]c2C(=O)N[C@@H](CC(C)C)C(=O)OCc2ccccc2)cc1`, the “hERG current change (%, negative = inhibition) at 1uM” value was -0.812%.

`O=CNCc1nc2ccccc2n1CCc1ccccc1`: the “hERG current change (%, negative = inhibition) at 1uM” value was determined as 15.1%.

As for `COc1ccccc1NC(=O)CSc1nc(O)cc(=O)n1-c1ccccc1OC`, the “hERG current change (%, negative = inhibition) at 1uM” value was found to be 13.4%.

As to `Cc1cc(C)n(-c2nc(-n3nc(C)cc3C)c3c4c(sc3n2)COC(C)(C)C4)n1`, the “hERG current change (%, negative = inhibition) at 1uM” value came to 13.8%.

Take `O=C(NCCc1csc(-c2cccnc2)n1)c1ccc(Cl)cc1`: the “hERG current change (%, negative = inhibition) at 1uM” value came to 7.35%.
